Experimental findings from ChEMBL document CHEMBL4888484, “Replenishing the malaria drug discovery pipeline: Screening and hit evaluation of the MMV Hit Generation Library 1 (HGL1) against asexual blood stage Plasmodium falciparum ,using a nano luciferase reporter read-out” (2022) are described below.

Hit rate of the full screen: of about 150,000 compounds, about 540 (0.36%) showed an effect of 50% or more. The list shows a part of the results.

This assay has as its system Plasmodium falciparum. Description: Primary screen in NF54 nanoGlo assay, in single point, at 2uM, 72h; a lower Z score goes with more inhibition. The format is functional, Erythrocyte. The following applies: timepoint 72 hour.
For `CCN(CC(=O)NC(C)C)Cc1nc(C)no1`, the % Inhibition (in general, the drop in the measured response relative to a control, in per cent) is given as -1% and the Z score was found to be 0.11.

As to `O=C1c2ccccc2C(=O)N1[C@H]1CCN(c2ccccn2)C1`, the “% Inhibition” value was -16% and the Z score was 1.82.

Take `CC(C)N(CC(=O)N1CCn2cccc2[C@H]1c1ccccc1Cl)C(=O)c1cccc(F)c1`: the “% Inhibition” value was 10% and the Z score is -1.28.

Consider `c1ccc2oc(C(NC3CCOC3)C3CC3)cc2c1` (stereo unspecified), for which the “% Inhibition” value is reported as -11% and the Z score came to 0.99.

As for `CN1C(=O)NC2c3ccccc3O[C@@]1(C)C2C(=O)Nc1ccccc1` (stereo partly specified), the “% Inhibition” value was 5% and the Z score was -0.68.

For `O=C(CN(C(=O)Nc1ccccc1)C1CC1)N(CCc1c[nH]c2ccccc12)Cc1ccc(Cl)cc1`, the “% Inhibition” value is listed as -7% and the Z score came to 0.94.

In the case of `CC1(C)[C@H](C(F)(F)F)CCN1C(=O)Nc1nc2ccccc2s1`, the “% Inhibition” value was -13% and the Z score worked out at 1.7.

`CCCc1cnc(C)nc1N1C[C@H]2CC[C@@H](C1)N(Cc1ccccn1)C2=O`: the “% Inhibition” value is reported as -8% and the Z score came out at 0.82.

As to `COc1cccc(CN(CC2(C#N)CC2)C2CCC(O)CC2)c1` (stereo unspecified), the “% Inhibition” value is on record as -2% and the Z score came to 0.31.

As for `CC(C)n1cc(NC(=O)CCc2cccnc2)cn1`, the “% Inhibition” value is listed as -21% and the Z score is recorded as 1.91.

In the case of `Cc1ccc(NC(=O)c2c(C)oc3nc(C)nc(N4CCOCC4)c23)c(C)c1`, the “% Inhibition” value is given as 1% and the Z score was -0.12.

Take `CCc1nc(C)ccc1OCc1ncnn1C`: the “% Inhibition” value is reported as 27% and the Z score is -3.03.

On to `CC(=O)[C@@H]1C[C@H](C(=O)NCc2nnc3ccccn23)C1(C)C`, for which the “% Inhibition” value is -8% and the Z score came to 1.26.

Turning to `O=C(c1cccs1)N1CC(C(=O)N2CCC(O)CC2)C1`, the “% Inhibition” value is reported as -8% and the Z score was 1.08.

Consider `Cn1c(CCc2ccc(NC(=O)c3cccc(Cl)c3)cc2)nc2ccccc21`, for which the “% Inhibition” value is -11% and the Z score is listed as 1.14.

Turning to `O=C(Cc1ccco1)Nc1ccncc1F`, the “% Inhibition” value is -1% and the Z score worked out at 0.1.

With `CC(CC(=O)O)(C(=O)N1CC[C@H](OC(F)F)C1)C1CCCCC1` (stereo partly specified), the “% Inhibition” value is listed as -10% and the Z score amounted to 1.24.

Regarding `Cc1cccc(Cl)c1C(=O)NCC1(C)COC1`, the “% Inhibition” value was determined as 1% and the Z score is reported as -0.1.

`CN(C[C@H]1Cc2ccccc2CO1)C(=O)c1ccoc1`: the “% Inhibition” value is -10% and the Z score is reported as 1.18.

For the compound `CCc1ccc([C@@H]2CN(C(=O)Cc3noc4ccccc34)CCO2)cc1`, the “% Inhibition” value was found to be 1% and the Z score is on record as -0.14.

In the case of `CCC1CN(C(=O)c2cnn3ccc(N)cc23)CC(C)O1` (stereo unspecified), the “% Inhibition” value was 1% and the Z score is -0.18.

As for `COc1ccc([C@@H]2CCCN2c2ccc(C(=O)NC(C)C)nn2)cc1`, the “% Inhibition” value is listed as -7% and the Z score came out at 0.74.

For the compound `CN1CCC[C@H](CNC(=O)c2cccc3c(=O)c4ccccc4[nH]c23)C1`, the “% Inhibition” value was -11% and the Z score is given as 1.45.

Take `O=C(Cc1ccc(F)cc1)NCC1(CO)CCC1`: the “% Inhibition” value is reported as -8% and the Z score is recorded as 0.77.

Consider `COCc1nc(CNC(=O)c2nnc(C(C)C)s2)cs1`, for which the “% Inhibition” value is -8% and the Z score is listed as 1.39.

With `COC[C@H]1CCCCN1C(=O)NCc1snnc1C`, the “% Inhibition” value was determined as 28% and the Z score was -3.16.

As for `C[C@@H](CO)NC(=O)C(=O)Nc1cccc(C(C)(C)O)c1`, the “% Inhibition” value amounted to 12% and the Z score is -1.53.

With `C[C@@H](C(=O)c1ccc(F)cc1)n1cnc(-c2ccc(F)cc2)cc1=O`, the “% Inhibition” value was 12% and the Z score is on record as -1.53.

For `CCC(=O)N1CCCOC12CN(C(=O)OC(C)(C)C)C2`, the “% Inhibition” value was found to be 7% and the Z score is listed as -0.75.

Consider `O=C(C[C@H](O)c1ccccc1)N1Cc2cccc(Br)c2C1`, for which the “% Inhibition” value is listed as -12% and the Z score is given as 1.29.

Turning to `C[C@@H](CC(=O)Nc1cccc2c1C(=O)NC2)N1CCCCC1=O`, the “% Inhibition” value was 9% and the Z score is recorded as -1.03.

Consider `CC[C@H]1c2cccn2CCN1C(=O)Cc1sc(C)nc1C`, for which the “% Inhibition” value is reported as -13% and the Z score turned out to be 1.84.

With `c1cc2c(cc1CNCC1CCCCC1)OCO2`, the “% Inhibition” value was determined as 3% and the Z score is on record as -0.38.

With `Cc1noc(C)c1C(=O)N1CCc2[nH]ncc2C1`, the “% Inhibition” value is on record as -14% and the Z score is reported as 1.63.

As to `Cc1ncsc1CN1CCC(OC2CCCCC2)CC1`, the “% Inhibition” value was -4% and the Z score worked out at 0.48.

For `CCNC(=O)C(C)(C)CNc1ccc(Br)cn1`, the “% Inhibition” value is 5% and the Z score is -0.98.

Take `O=C(O)c1cccc(CN2CCc3nc(C4CC4)ncc3C2)c1`: the “% Inhibition” value is -13% and the Z score was 1.45.

For `Cn1ccc(CN2CCC[C@H](c3cc(C(F)(F)F)[nH]n3)C2)cc1=O`, the “% Inhibition” value was found to be 1% and the Z score was -0.11.

In the case of `C[C@@H](NCCc1cnn(C)c1)c1ccc(Br)cc1`, the “% Inhibition” value is -10% and the Z score was determined as 0.97.

As to `Cc1ccc(C(=O)N(Cc2cccc(F)c2)c2ccc(CC(=O)N[C@@H](C)c3ccccc3)cc2)cc1`, the “% Inhibition” value worked out at 74% and the Z score is -8.26.

On to `CS(=O)(=O)[C@H]1CCCN(C(=O)c2ccc3c(c2)CCCCC3=O)CC1`, for which the “% Inhibition” value is on record as -5% and the Z score came out at 0.54.

For the compound `CCOc1ccncc1S(=O)(=O)N1CCC[C@@]12CCOC2`, the “% Inhibition” value was -7% and the Z score turned out to be 1.23.

On to `O=C(N[C@@H]1CC[C@H]2CCOc3ccccc3C(=O)N3CCN(Cc4cccc(Cl)c4)C[C@H]3C(=O)NC[C@H]1O2)C1CCOCC1`, for which the “% Inhibition” value is -13% and the Z score came to 2.01.
